# Experimental data as given in PubChem BioAssay (Tox21).
# Several values for one entry are separate records, joined by “and”; a condition that tells them apart may be missing. Equal entries are not always repeated. The inconclusive results got no clear call from the source; some entries with a clear call stand among them for comparison. Potencies beside an inconclusive call are fits to weak or partial responses and may not hold up. Some structures have more than one record in an assay (separate samples or runs), and their calls can disagree. Activity calls are given as the source filed them. Unless noted, the call rests on the fitted dose curve; in most records, active means well fitted cell-killing curve with a large enough effect in the repeat runs; inconclusive means weak or mixed curves, or effect the other way; inactive means no such curve, though single readings can be large or run the other way.
# Tested on: not listed separately
# Experiment: qHTS assay to identify small molecule agonists of the farnesoid-X-receptor (FXR) signaling pathway - cell viability counter screen (AID 743218); further: nearly all actives have a fitted effect of over 45% in size; on viability change, negative = cytotoxic: on the % scale 0 is the no-effect control and ±100 the full control effect
# Details: FXR-bla HEK293T viability, CellTiter-Glo luminescence, 16 h; viability change, negative = cytotoxic: at 62.6 µM (top of the series) unless noted
# How it was run: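 Luminescence from CellTiter-Glo, read after 30 min at RT, reports viability of GeneBLAzer FXR-UAS-bla HEK 293T cells treated 16 h with compounds in the wells used for the beta-lactamase reporter.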
# Potency means the concentration at half of the fitted maximal effect; tags describe the fitted curve by direction and shape or compound fluorescence and quenching.
row,SMILES,Potency
1,CN1C[C@H](C(=O)N[C@]2(C)O[C@@]3(O)[C@@H]4CCCN4C(=O)[C@H](Cc4ccccc4)N3C2=O)C=C2c3cccc4[nH]cc(c34)C[C@H]21,"inconclusive: 55.2 µM [cytotoxic, single point]"
2,Clc1ccc(C(Cl)(Cl)Cl)cc1Cl,"inconclusive: 0.024 µM [rising, full curve, poor fit]"
3,Nc1ccc(Cl)cc1N,"inconclusive: 27.3 µM [cytotoxic, single point]"
4,CCN(CC)C(=S)S,"active: 12.4 µM and inconclusive: 12.2 µM [cytotoxic, partial curve, poor fit] and inconclusive: 4.36 µM [cytotoxic]"
5,C[C@@H]1O[C@@H](O[C@H]2C[C@@H](O)[C@]3(CO)[C@H]4[C@H](O)C[C@]5(C)[C@@H](C6=CC(=O)OC6)CC[C@]5(O)[C@@H]4CC[C@]3(O)C2)[C@H](O)[C@H](O)[C@H]1O,"inconclusive: 36.9 nM [cytotoxic, full curve] and inconclusive: 150 nM [cytotoxic, full curve]"
6,CCCCCCCCCCn1cc[n+](C)c1,"active: 55.5 µM and inconclusive: 56.4 µM [cytotoxic, partial curve]"
7,O=[N+]([O-])c1ccc(O)c([N+](=O)[O-])c1,"inconclusive: 9.81 µM [cytotoxic, full curve] and inconclusive: 6.16 µM [cytotoxic, full curve]"
8,CC1(C)C(C=C(Cl)Cl)C1C(=O)OC(C#N)c1ccc(F)c(Oc2ccccc2)c1 (centres undefined),"inconclusive: 3.09 µM [rising, full curve, poor fit]"
9,CC(C)(c1cc(Cl)c(O)c(Cl)c1)c1cc(Cl)c(O)c(Cl)c1,"inconclusive: 61.7 µM [cytotoxic, single point] and inactive"
10,CC1(C)[C@H](C(=O)O[C@H](C#N)c2cccc(Oc3ccccc3)c2)[C@@H]1C=C(Br)Br,"inconclusive: 22.8 µM [rising, partial curve, poor fit] and inconclusive: 12.3 µM [rising, partial curve, poor fit]"
11,N#Cc1c(Cl)c(Cl)c(Cl)c(C#N)c1Cl,active: 21.5 µM and active: 15.5 µM
12,Brc1ccc(Oc2ccc(Br)cc2Br)c(Br)c1,inconclusive: 61.7 µM [cytotoxic]
13,c1cc(OCC2CO2)ccc1Cc1ccc(OCC2CO2)cc1 (centres undefined),inactive
14,O=[N+]([O-])c1c(Cl)c(Cl)c(Cl)c(Cl)c1Cl,"inactive and inconclusive: 24.5 µM [cytotoxic, partial curve, poor fit]"

# Molecular target: Bile acid receptor (Homo sapiens) (UniProt Q96RI1)
# Sequence of UniProt Q96RI1 (Q96RI1 whole entry, looked up): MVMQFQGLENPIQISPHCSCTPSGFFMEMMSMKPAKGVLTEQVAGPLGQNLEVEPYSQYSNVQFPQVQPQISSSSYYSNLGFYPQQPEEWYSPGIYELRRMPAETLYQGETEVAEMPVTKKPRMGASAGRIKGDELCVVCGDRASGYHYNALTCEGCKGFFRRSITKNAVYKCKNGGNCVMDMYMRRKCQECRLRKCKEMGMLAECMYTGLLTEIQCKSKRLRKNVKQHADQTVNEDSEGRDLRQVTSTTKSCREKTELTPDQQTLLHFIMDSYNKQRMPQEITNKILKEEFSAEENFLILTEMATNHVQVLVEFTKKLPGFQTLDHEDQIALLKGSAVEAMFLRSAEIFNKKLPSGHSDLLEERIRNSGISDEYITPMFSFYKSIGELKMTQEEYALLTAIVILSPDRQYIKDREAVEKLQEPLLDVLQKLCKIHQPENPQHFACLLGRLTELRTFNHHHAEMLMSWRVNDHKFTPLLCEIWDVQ
# Experiment: qHTS assay to identify small molecule agonists of the farnesoid-X-receptor (FXR) signaling pathway (AID 743220; active means well fitted activation curve with a large enough effect in the signal ratio in the repeat runs, not every such curve was filed as active; inconclusive means weak or mixed curves, or effect the other way; the % refers to the signal ratio; on activation: on the % scale 0 is the no-effect control and ±100 the full control effect)
# Details: HEK293T FXR-UAS-bla, beta-lactamase FRET ratio, 16 h; activation: at 62.6 µM (top of the series) unless noted
# How it was run: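 FXR-UAS-bla HEK 293T cells carrying a UAS-driven beta-lactamase reporter were plated for 5 h at 37C/5% CO2, then exposed to DMSO-dissolved Tox21 10K compounds for 16 h at 37C. A LiveBLAzer B/G FRET substrate was loaded for 2 h at room temperature before fluorescence reading.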
SMILES,activation,Potency
O=P(OCC(Br)CBr)(OCC(Br)CBr)OCC(Br)CBr (centres undefined),inconclusive: 0.428%,–
Nc1ccc(Cl)cc1N,–,"inconclusive: 18.1 µM [fluorescent, partial curve, poor fit] and inconclusive: 2.45 µM [fluorescent, full curve, poor fit]"
COC(=O)C(c1ccccc1)C1CCCCN1 (centres undefined),inactive: 0.575%,–
COP(=O)(OC)C(O)C(Cl)(Cl)Cl (centres undefined),inconclusive: 7.94% [at 81.1 µM],–
COCC(C)N(C(=O)CCl)c1c(C)csc1C (centres undefined),inactive: -0.484%,–
N#Cc1c(Cl)c(Cl)c(Cl)c(C#N)c1Cl,–,inconclusive: 60.5 µM [single point] and inconclusive: 61.6 µM [single point]
CC(C)C(Nc1ccc(C(F)(F)F)cc1Cl)C(=O)OC(C#N)c1cccc(Oc2ccccc2)c1 (centres undefined),–,"inconclusive: 55.4 µM [falling, partial curve]"
c1cc(OCC2CO2)ccc1Cc1ccc(OCC2CO2)cc1 (centres undefined),inconclusive: 4.89% [at 81.1 µM],–
CCN(CC)CCc1c[nH]c2ccccc12,inactive: -1.31% [at 81.1 µM],–

# Tested on: not listed separately
# Experiment: qHTS assay to identify small molecule antagonists of the farnesoid-X-receptor (FXR) signaling pathway - cell viability counter screen (AID 743221; active means well fitted cell-killing curve with a large enough effect in the repeat runs, not every such curve was filed as active; inconclusive means weak or mixed curves, or effect the other way; inactive means no such curve, though single readings can be large or run the other way; further: nearly all actives have a fitted effect of over 50% in size)
# Details: FXR-bla HEK293T viability, CellTiter-Glo luminescence, 16 h; activity change, negative = cytotoxicity: at 62.6 µM (top of the series) unless noted
# How it was run: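 Luminescence from CellTiter-Glo measures cytotoxicity in GeneBLAzer FXR-UAS-bla HEK 293T cells. Cells were exposed to compounds with 50 uM chenodeoxycholic acid (final) for 16 h at 37 C, in wells also used for the reporter readout.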
row,SMILES,Potency
1,Cc1ccc(OP(=O)(Oc2ccc(C)cc2)Oc2ccc(C)cc2)cc1,"inconclusive: 54.9 µM [falling, partial curve, poor fit]"
2,CN1C[C@H](C(=O)N[C@]2(C)O[C@@]3(O)[C@@H]4CCCN4C(=O)[C@H](Cc4ccccc4)N3C2=O)C=C2c3cccc4[nH]cc(c34)C[C@H]21,"inconclusive: 49.2 µM [falling, partial curve, poor fit]"
3,O=P(OCC(Br)CBr)(OCC(Br)CBr)OCC(Br)CBr (centres undefined),"inconclusive: 31.3 µM [falling, partial curve, poor fit]"
4,Nc1ccc(Cl)cc1N,"inconclusive: 1.14 µM [falling, full curve, poor fit]"
5,CCN(CC)C(=S)S,active: 22.1 µM and active: 4.87 µM and active: 7.76 µM
6,C[C@@H]1O[C@@H](O[C@H]2C[C@@H](O)[C@]3(CO)[C@H]4[C@H](O)C[C@]5(C)[C@@H](C6=CC(=O)OC6)CC[C@]5(O)[C@@H]4CC[C@]3(O)C2)[C@H](O)[C@H](O)[C@H]1O,"inconclusive: 26.1 nM [falling, full curve] and inconclusive: 168 nM [falling, full curve]"
7,CCCCCCCCCCn1cc[n+](C)c1,"inconclusive: 0.0552 µM [falling, full curve, poor fit]"
8,COC(=O)C(c1ccccc1)C1CCCCN1 (centres undefined),"inconclusive: 43.7 µM [falling, partial curve, poor fit]"
9,CCCCCCCCCCCCn1cc[n+](C)c1,"inconclusive: 55.2 µM [falling, single point] and inconclusive: 55 µM [falling, single point] and inconclusive: 54.9 µM [falling, single point]"
10,N#Cc1c(Cl)c(Cl)c(Cl)c(C#N)c1Cl,active: 24.1 µM and active: 21.9 µM
11,O=[N+]([O-])c1c(Cl)c(Cl)c(Cl)c(Cl)c1Cl,"inconclusive: 54.9 µM [falling, single point]"
